# Results published in ChEMBL document CHEMBL4888484, “Replenishing the malaria drug discovery pipeline: Screening and hit evaluation of the MMV Hit Generation Library 1 (HGL1) against asexual blood stage Plasmodium falciparum ,using a nano luciferase reporter read-out” (2022).
# Among all 150,000 compounds or so, about 540 (0.36%) showed an effect of 50% or more. This is one part of the list.
# Test system: Plasmodium falciparum
# Assay: Primary screen in NF54 nanoGlo assay, in single point, at 2uM, 72h; a lower Z score goes with more inhibition
# Type: functional, Erythrocyte
# Conditions: timepoint 72 hour
Compound,% Inhibition [%],Z score
COC(=O)c1cn(CC(=O)Nc2ccc3c(c2)OCO3)cc2c(O)nnc1-2,2,-0.44
CON(C)C(=O)CCc1c(C)[nH]c(=O)c(C#N)c1C,11,-1.18
COc1ncccc1-c1ccc(CN2CCCCC2)cn1,-5,0.86
COc1ccc(-c2nnc3c4c(cnn23)nnn4Cc2ccccc2Cl)cc1,-7,1.21
COCC1(NC(=O)c2nnc3nc(C)ccn23)CCCC1,1,-0.13
C[C@@H](CO)NC(=O)c1cc2c(s1)CCC2,-37,4.38
COc1ccc(CCC(=O)N2C[C@H](CNC(=O)N3CCCC3)C3(CCOCC3)C2)cc1,-4,0.53
COc1ccc(N2CCN(C(=O)CC[C@@H]3NC(=O)c4ccccc4N=C3O)CC2)cc1,2,-0.28
COc1ccc(CN(C(=O)N2CCOCC2)[C@@H](C)C2CC2)c(OC)c1,-8,0.89
CCn1cc(S(=O)(=O)N2CC[C@H]3C(=O)NCCCCCCN(Cc4ccncc4)[C@@H]3C2)cn1,-13,2.23
Cc1nc(-c2ccc(-c3cncnc3)s2)cs1,-11,1.17
O=C(Nc1ccc(Oc2cccc3[nH]ccc23)nc1)[C@@H]1CCCO1,14,-1.61
O=C(NCCc1ccc(F)cc1)c1cc2c(cc1O)OCO2,-9,1.2
CNC(=O)COc1ccc(Br)cc1C,2,-0.25
Cc1ccccc1S(=O)(=O)NCc1noc(CC(C)C)n1,-15,1.9
O=S1(=O)CC[C@H](Nc2nc(C(F)(F)F)ns2)CC12CCC2,-6,0.63
CCn1ccnc1CN(C)C(=O)NCc1ccc(OC(C)C)c(OC)c1,4,-0.65
Cn1cc(N2C[C@@H](C(=O)N3CCOCC3(C)C)CCC2=O)cn1,-1,0.24
CC1(C)CNc2cc(F)c(Br)cc21,-7,0.78
COc1ncc(CN2CCC[C@H](CN3CCOCC3)C2)cn1,-14,2.06
CN(CCc1ccccn1)[C@H]1CCN(Cc2cc(C#CCO)cs2)C[C@@H]1O,-7,0.87

Compound,% Inhibition [%],Z score
O=C([C@@H]1CCCc2[nH]cnc21)N1CCCN(CC2CCC2)CC1,-3,0.29
C[C@H](Oc1cccnc1)C(=O)N1CCC(CN2CCNC2=O)CC1,2,-0.27
Cc1scc2nc(C(=O)NCCN3CCCCC3)nc(N(C)C)c12,15,-1.75
Cc1nc(C(NC2CCOC2)c2ccc(Cl)c(F)c2)no1 (centres undefined),-19,2.75
CC(C)NC(=O)N1CCN(c2ccc(Cl)c(NC(=O)CN(Cc3ccc(F)cc3)C(=O)C(C)C)c2)CC1,-17,1.83
Cn1cc(CCN2CCC(C(=O)N3CCC(Cc4ccccc4)CC3)CC2)c2cccnc21,-17,1.94
CC(C)(C)OC[C@@H](O)CN1CCN(Cc2nc(C(=O)Nc3cccc(F)c3)co2)CC1,-4,0.56
Nc1nc(N[C@@H]2COCC[C@@H]2OCC2CC2)c2cn[nH]c2n1,-2,0.29
Cc1ccc2[nH]c(=O)cc(C(=O)N3CC[C@](C)(O)[C@H](O)C3)c2c1,-6,0.61
CC(C)c1nccc(-c2nccn2CCN2CCNC2=O)n1,5,-0.71
CCOc1cc(C(=O)Nc2cnn(-c3ccncc3)c2)ccc1C,10,-1.15
O=C(Nc1ccc(Cl)cc1)N1CCCN(Cc2ccc(F)cc2)C1,-6,0.97
O=C(CCc1cc2n(n1)CCCN(Cc1ccncc1)C2)N1CCCC1,-11,1.17
CC(C)(O)CCc1ccc(C(=O)N2CC[C@H]2c2ccc(F)cc2)cc1,-3,0.36
Cc1n[nH]cc1Nc1ccc(Cl)c(C#N)n1,-19,1.62
C#CCNC(=O)[C@H](C)N(C)Cc1ccc(Br)o1,0,0.01
Nc1nc(C(F)(F)F)nc(C(F)(F)F)n1,0,-0.07
O=C(c1cccnc1)N(Cc1ccco1)C1CC1,-5,0.45
COCCOCCNc1cc(NC(C)=O)ccc1Cl,-13,2.02
COc1cc(C(=O)Nc2cccc(-c3nc(C)cc(=O)[nH]3)c2)ccc1OCc1cscn1,-2,0.29
CC(=O)N[C@H]1CCN(C(=O)c2cnn(C3CC3)c2)C1,-4,0.49
